About 4,300 (8.3%) of roughly 52,000 compounds were called active. Cut-off read from the data, not from the text of the source: active = survival mostly below about 52% (no sharp cut-off); inactive = mostly above about 56%. Some of the results follow.
Tested on: DeltatarO mutant
Assay: S. aureus survival, RN4220 and DeltatarO strains – OD600, teichoic acid synthesis inhibitors, primary screen (AID 463173)
Conditions: S. aureus RN4220 wild type/DeltatarO growth, OD600, 18 h, hits give low values, screened at 18.75 µg/mL (by protocol)

| Compound | survival |
| --- | --- |
| CCOC(=O)N1CCc2c(sc3c2c(=O)n(CCc2ccccc2)c(=O)n3CC(=O)Nc2ccccc2C)C1 | inactive: 88% |
| O=C(c1cccc(Cl)c1)N(Cc1cccc(F)c1)C1CCS(=O)(=O)C1 (centres undefined) | inactive: 88% |
| NC(=O)c1c(NC(=O)CS(=O)(=O)c2ccc(Cl)cc2)sc2c1CCCC2 | inactive: 118% |
| CCCN1CCN(CCCNC(=O)c2cc3c(s2)-c2c(C)cccc2OC3)CC1 | inactive: 127% |
| COC(=O)c1cc2sccc2n1Cc1c(C)cc(C)cc1C | inactive: 66% |
| Cc1nn(C)c2c1c(C(F)(F)F)cc(=O)n2CC(=O)Nc1ccc(F)cc1F | inactive: 104% |
| Cc1nnc(N2CCC(C(=O)NC3CCC(C)CC3)CC2)c2nn(-c3ccc(Cl)cc3)c(C)c12 (centres undefined) | inactive: 78% |
| Cc1ccccc1NC(=O)CSc1nccn1C | inactive: 73% |
| CCC(Sc1nc2ccccc2s1)C(=O)Nc1cc(C)on1 (centres undefined) | inactive: 90% |
| Cc1cccc(N(C)C(=O)Cn2cnc3nc4c(cc3c2=O)CCCC4)c1 | active: 17% |
| Cc1cc(NCCN(C)C)c2ccccc2n1 | inactive: 89% |
| CCN1C(=O)C(Cc2nc3ccccc3c(=O)n2-c2cccc(C)c2)c2ccccc21 (centres undefined) | inactive: 50% |
| Cc1ccc(-c2noc(-c3ccccc3OCC(=O)Nc3ccccc3[N+](=O)[O-])n2)cc1 | inactive: 60% |
| CC(C)Oc1ccc(C(=O)NCCc2csc(-c3cccc(F)c3)n2)cc1 | inactive: 90% |
| O=C(Nc1ncc(Cc2ccc(F)cc2)s1)c1ccc2c(c1)CC(c1ccccc1)OC2=O (centres undefined) | inactive: 70% |
| CCCCCn1c(CCCNC(=O)c2ccccc2)nc2ccccc21 | inactive: 59% |
| COc1cccc(NC(=O)Cn2c(=O)n(-c3ccc(C)cc3)c(=O)c3ccccc32)c1 | inactive: 75% |
| CCCC(=O)N1c2nc(-c3ccco3)nn2C2(CCCCC2)[C@@H]2CCCC[C@@H]21 | inactive: 53% |
| Cc1nc2ccccc2n1CCc1nc2c3ccccc3nc(SCc3ccccc3F)n2n1 | inactive: 95% |
| CCc1ccc(CNC(=O)c2ccc(Cn3c(=O)c4cccn4c4cccnc43)cc2)cc1 | inactive: 67% |
| CCCc1nnc(NC(=O)CSc2nnc3c4ccccc4n(CC)c3n2)s1 | inactive: 69% |
| COc1cccc(N2CC(NC(=O)c3cccs3)CC2=O)c1 (centres undefined) | inactive: 74% |
| COc1cccc(CNC(=O)CCc2c(C)nn(-c3ccc(N4CCCC4)nn3)c2C)c1 | inactive: 88% |

| Compound | survival |
| --- | --- |
| Cc1cc(Cl)ccc1NC(=O)C1CCCN(c2nnc(C)c3c(C)n(-c4ccccc4)nc23)C1 (centres undefined) | inactive: 75% |
| CC(C)c1ncc(C(O)c2cccc3ccccc23)n1C (centres undefined) | active: 56% |
| CC(CCc1ccccc1)NC(=O)CSc1n[nH]c(-c2ccccc2Cl)n1 (centres undefined) | inactive: 54% |
| Cc1cc(F)ccc1NC(=O)C1CCCN(C(=O)c2cnn(-c3ccccc3)c2-n2cccc2)C1 (centres undefined) | inactive: 63% |
| COc1ccc(OC(=O)c2cn(-c3cccc(OC)c3)c(=O)c3ccccc23)cc1 | inactive: 80% |
| O=S(=O)(NCC(c1ccco1)S(=O)(=O)c1cccs1)c1ccccc1 (centres undefined) | inactive: 101% |
| Cc1ccc(OC(C)C(=O)N2CCN(CCc3ccccn3)CC2)cc1C (centres undefined) | inactive: 66% |
| CCCCc1nc(Cl)c(C#N)c2c1COC(C)(C)C2 | inactive: 98% |
| COc1ccc(-c2oc3ncn4nc(COc5ccc(Cl)cc5)nc4c3c2-c2ccc(OC)cc2)cc1 | inactive: 87% |
| CCc1nnc2c(Nc3cc(OC)c(Cl)cc3OC)nc3ccccc3n12 | inactive: 86% |
| O=C(Nc1ccc2oc(-c3cccc4c(Br)cccc34)nc2c1)c1cccc(Cl)c1 | inactive: 119% |
| CCc1cccc(C)c1NC(=O)c1cc(CN2CCCC2)on1 | inactive: 87% |
| CC(C)NC(=O)C1CCCN(S(=O)(=O)c2ccc3c(ccn3C)c2)C1 (centres undefined) | inactive: 75% |
| Cc1ccc(OCCCC(=O)Nc2sc3c(c2C(N)=O)CCC(C)C3)cc1 (centres undefined) | inactive: 159% |
| COc1ccc(N(CC(=O)N2CCN(c3cccc(Cl)c3)CC2)S(=O)(=O)c2c(C)noc2C)cc1 | inactive: 77% |
| CC(NC(=O)CN1C2CCC1CC(=O)NC2)c1ccccc1 (centres undefined) | inactive: 111% |
| CCOCCCNC(=O)CN1C(=O)CCn2nc(-c3cccn3C)cc21 | inactive: 80% |
| COc1cc2[nH]c(=O)n(CCCC(=O)N(C)Cc3ccccc3)c(=O)c2cc1OC | inactive: 88% |
| CCOC(=O)c1ccc(N2C(=O)c3n[nH]c(C)c3C2c2ccc(CC)cc2)cc1 (centres undefined) | inactive: 78% |
| Cc1cc(=O)n(Cc2ccccc2)c(=O)n1Cc1ccccc1 | inactive: 89% |
| CCc1ccccc1NC(=O)Cn1nc(C)c2nn(-c3ccc(Cl)cc3)c(C)c2c1=O | inactive: 99% |
| CCc1ccc(S(=O)(=O)c2cn(C)c3ccc(C)cc3c2=O)cc1 | inactive: 96% |
| Cc1ccc(NC(=O)Cn2cc(S(=O)(=O)Cc3ccccc3)c3ccccc32)cc1C | inactive: 94% |

| Compound | survival |
| --- | --- |
| COC(=O)c1cc2occc2n1Cc1nc(-c2ccc(Cl)cc2)oc1C | inactive: 100% |
| CC1CCCCC1NC(=O)CN1CCC(NC(=O)Nc2ccccc2)CC1 (centres undefined) | inactive: 89% |
| Cc1ccc(-n2nc(C(=O)N(C)c3ccccc3Cl)c3c4ccccc4n(C)c3c2=O)cc1 | inactive: 88% |
| Cc1cccn2c(=O)cc(COc3cccc(NC(=O)Nc4cccc(Cl)c4)c3)nc12 | inactive: 130% |
| CC(C)c1ccc(NC(=O)c2cc(S(=O)(=O)NCCc3ccccc3)ccc2F)cc1 | inactive: 63% |
| COc1ccc(-n2ccnc(NCCc3ccc(S(N)(=O)=O)cc3)c2=O)cc1Cl | inactive: 95% |
| O=C1Cc2cc(S(=O)(=O)Nc3cccc(C(F)(F)F)c3)cc3c2N1CCC3 | inactive: 64% |
| COc1ccc(C(C)C)cc1S(=O)(=O)NCCc1c(C)[nH]c2c(Cl)cccc12 | inactive: 82% |
| CN(C)S(=O)(=O)N(CC(=O)NCCSCc1ccc(Cl)cc1Cl)c1ccccc1 | active: 47% |
| CCOC(=O)C(Cc1ccccc1)NC(=O)Cn1nnc(-c2ccc(C)cc2)n1 (centres undefined) | inactive: 59% |
| CCOC(=O)C(CC)n1c(Br)nc2c1c(=O)[nH]c(=O)n2C (centres undefined) | inactive: 101% |
| COc1ccc(NC(=O)CN2C(=O)C(c3ccccc3)=NC23CCC(C)CC3)cc1Cl (centres undefined) | inactive: 73% |
| COc1ccc2[nH]c(=O)cc(C(=O)O)c2c1 | inactive: 104% |
| O=C(C(c1ccccc1)c1ccccc1)N1CCN(c2ccccn2)CC1 | inactive: 74% |
| CCn1nc(C)c(CCN(C)C(=O)Nc2cc(Cl)c(OC)cc2OC)c1C | inactive: 85% |
| CCN(Cc1ccccc1)C(=O)Cn1c(=O)cc(C)c2c(C)nn(-c3cccc(F)c3)c21 | inactive: 72% |
| O=C(CSc1oc(-c2ccc(F)cc2)nc1S(=O)(=O)c1ccccc1)c1ccc(Cl)cc1 | inactive: 55% |
| CC(C)c1nn2c(=O)cc(COC(=O)c3cccc(NC(=O)CCc4ccccc4)c3)nc2s1 | inactive: 94% |
| CCOc1ccc(-c2nnc(SCC(=O)NC3CCCCC3)nc2-c2ccc(OCC)c(OC)c2)cc1OC | inactive: 78% |
| CCc1ccc2occ(CC(=O)Nc3nnc(SC)s3)c2c1 | inactive: 76% |
| CC(C)c1ccc(NC(=O)C2CCC(CNS(=O)(=O)c3ccc4c(c3)CCCC(=O)N4)CC2)cc1 (centres undefined) | inactive: 73% |
| COc1ccc(CNC(=O)CCn2c(=O)c3cccn3c3ccc(F)cc32)cc1OC | inactive: 91% |
| CCN1C(=O)c2ccccc2S(=O)(=O)c2ccc(C(=O)NCc3ccc(C)cc3)cc21 | inactive: 61% |

| Compound | survival |
| --- | --- |
| CC(C)c1ccc(NC(=O)[C@H]2O[C@@H]3OC(C)(C)O[C@@H]3[C@H]3OC(C)(C)O[C@H]32)cc1 | inactive: 91% |
| COc1ccc(-c2nc3cc(N=Cc4ccccc4O)ccc3o2)cc1 | inactive: 93% |
| CCN(CC)c1ccc2nc3c(=O)n(C)c(=O)n(C)c3nc2c1 | inactive: 64% |
| Cc1nn(CC(=O)N2CCN(c3ccccc3F)CC2)c(=O)c2cccn12 | inactive: 103% |
| CCc1cc2c(=O)c(-c3nc(C)cs3)c(CCC(=O)O)oc2cc1O | inactive: 62% |
| Cc1cc(OC(C)C(=O)N(Cc2ccco2)Cc2ccco2)cc(C)c1Cl (centres undefined) | active: 35% |
| Cn1c(CNc2cccc(C(F)(F)F)c2)n[nH]c1=S | inactive: 95% |
| CCC(C(=O)NCc1ccccc1Cl)n1c(=O)c2cccn2c2ccccc21 (centres undefined) | inactive: 47% |
| COC(=O)c1cc(OC)c(OC)cc1NC(=O)c1ccc2c(c1)CCN2S(C)(=O)=O | active: 37% |
| Cc1ccc2c(c1)N(C(=O)c1ccc(F)cc1)C(C)(C)CC2(C)c1ccccc1 (centres undefined) | active: 24% |
| O=C(NCc1ccccc1)c1c2c(nc3ccccc13)C(=O)N(C1CCCCC1)C2 | inactive: 69% |
| CCc1ccccc1N1C(=O)N(Cc2cc(=O)n3ccccc3n2)c2ccccc2S1(=O)=O | inactive: 84% |
| CCOC(=O)c1[nH]c(C)c(CCC(=O)N2CCN(c3ccc(Cl)cc3)CC2)c1C | inactive: 80% |
| CCS(=O)(=O)c1nc(S(=O)(=O)c2ccc(Cl)cc2)c(NCc2ccc(Cl)cc2)s1 | inactive: 70% |
| COc1ccc(-c2ccc(=O)n(CC(=O)Nc3ccc(Br)cc3F)n2)cc1 | inactive: 84% |
| Cn1c(=O)c2c(-c3ccccc3)n(-c3cccc(C#N)c3)cc2n(C)c1=O | inactive: 77% |
| CC1(C)NC(=O)N(CC(O)CN2C(=O)NC(C)(C)C2=O)C1=O | inactive: 93% |
| CCc1ccc2nc(N(Cc3cccnc3)C(=O)Cc3ccccc3)sc2c1 | inactive: 99% |
| COc1ccc(Cc2c(C)nn(-c3nc(C)c(C(=O)Nc4cccc(C(C)=O)c4)s3)c2C)cc1 | inactive: 71% |
| Cn1c(=O)c2c(-c3ccc(Cl)cc3)ccnc2n(C)c1=O | inactive: 53% |
